Reference: PubChem BioAssay AID1478 (National Center for Advancing Translational Sciences (NCATS), 2009)
The whole screen tested about 200,000 compounds, of which about 860 (0.43%) were called active. The inconclusive results got no clear call from the source; some entries with a clear call stand among them for comparison. The call rests on the fitted dose curve; in most records, active means well fitted inhibition curve with a large enough effect; inconclusive means small, poorly fitted or top-dose-only effect; inactive means flat fitted curve, though single readings scatter. Potencies beside an inconclusive call are fits to weak or partial responses and may not hold up. Some structures have more than one record in an assay (separate samples or runs), and their calls can disagree.

target: Cruzipain (Trypanosoma cruzi) (UniProt P25779); experiment: qHTS Assay for Promiscuous and Specific Inhibitors of Cruzain (with detergent); conditions: purified cruzain, Z-FR-AMC fluorescence, 0.01% Triton; further: nearly all actives have a fitted effect of over 40% in size;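 on max response, negative = inhibition: plate controls were neutral wells for no effect and buffer without enzyme for full effect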
Summary of the method: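 Read-out: AMC fluorescence (360 nm excitation, 450 nm emission), four reads over 2 min, first-to-third difference used. Conditions: cruzain 1.5 nM, Z-FR-AMC 2 uM, pH 5.5 acetate, 5 mM DTT, 0.01% Triton X-100.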
Potency means the concentration at half of the fitted maximal effect; tags describe the fitted curve by direction and shape.

Sequence of UniProt P25779 (P25779 whole entry, looked up): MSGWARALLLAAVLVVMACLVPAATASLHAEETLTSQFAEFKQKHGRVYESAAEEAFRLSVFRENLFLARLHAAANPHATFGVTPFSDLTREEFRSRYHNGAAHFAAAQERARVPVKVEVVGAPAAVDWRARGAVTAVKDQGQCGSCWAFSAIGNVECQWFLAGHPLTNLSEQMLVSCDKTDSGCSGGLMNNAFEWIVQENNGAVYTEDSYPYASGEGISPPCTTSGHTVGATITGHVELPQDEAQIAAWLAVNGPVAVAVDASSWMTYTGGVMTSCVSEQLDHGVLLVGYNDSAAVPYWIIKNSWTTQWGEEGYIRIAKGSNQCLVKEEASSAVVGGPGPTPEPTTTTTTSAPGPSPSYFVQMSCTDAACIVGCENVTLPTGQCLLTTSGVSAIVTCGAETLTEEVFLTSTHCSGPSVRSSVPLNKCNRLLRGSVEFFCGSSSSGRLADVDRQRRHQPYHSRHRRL

Compound | Potency | max response, negative = inhibition
CCOc1ccc2[nH]c(=O)c(C(c3nnnn3Cc3ccco3)N3CCCC(C)C3)cc2c1 (stereo not given) | inconclusive: 25.1 µM [inhibitor, single point] | 
CC(C)OCCCNC(=O)C(=O)Nc1c2c(nn1-c1ccccc1)CS(=O)(=O)C2 |  | inactive: -1.18%
CCc1ccc(-c2nn(CC(=O)NC3CCCCC3)c3c2cnc2ccc(F)cc23)cc1 |  | inactive: -1.38%
CC1=C(C(N)=O)C(c2ccccc2Br)n2ncnc2N1 (stereo not given) |  | inactive: -1.21%
COc1ccc(CNC(=O)CCCN2C(=O)COc3ccc(C)cc32)cc1 |  | inactive: 2.82%
O=C(NNC(=O)c1cc2cc3ccccc3nc2s1)c1cccc(Cl)c1 | inconclusive: 25.1 µM [inhibitor, single point] | 
O=S(=O)(c1ccccc1)c1nc(-c2ccco2)oc1NCc1ccccc1 | active: 22.4 µM | 
Cc1cc(N)c2ccccc2[n+]1CCCCCCCCCC[n+]1c(C)cc(N)c2ccccc21 | active: 12.6 µM | 
CC1=C(C(=O)OCc2ccccc2)C(c2ccc(-c3ccccc3)cc2)NC(=O)N1CCCCCC(=O)O (stereo not given) | inconclusive: 31.6 µM [inhibitor, single point] | 
CCN(CC)C(=O)CC(c1ccc(F)cc1)c1ccco1 (stereo not given) | inconclusive: 25.1 µM [inhibitor, single point] | 
Clc1cccc(/C=N\Nc2nccs2)c1 | active: 25.1 µM | 
CCOC(=O)C1=C(C)N=c2s/c(=C\c3ccncc3)c(=O)n2C1c1ccc2c(c1)OCO2 (stereo not given) | inconclusive: 25.1 µM [inhibitor, single point] | 
CN1CCN(c2ncc3nc(-c4ccc(F)cc4)c(=O)n(C4CC4)c3n2)CC1 | inconclusive: 28.2 µM [inhibitor, single point] | 
Cc1ccc(C)c(Cn2c3ccccc3c3cnn(CC(=O)NC4CCC(C)CC4)c(=O)c32)c1 (stereo not given) |  | inactive: -1.38%
CCOC(=O)c1c(NC(=O)C2C3C=CC(C3)C2C(=O)O)sc2c1CCC(CC)C2 (stereo not given) | inconclusive: 28.2 µM [inhibitor, single point] | 
O=C(CNC(=O)c1ccccc1F)OCc1cc(=O)n2ccsc2n1 | inconclusive: 28.2 µM [inhibitor, single point] | 
Cc1ccc(-c2nc(N/N=C/c3ccncc3)c3ccccc3n2)cc1 | inconclusive: 39.8 µM [inhibitor, single point] | 
COc1ccccc1CNC(=O)CCn1c(=O)c2ccccc2n(CC(=O)Nc2ccc(C)cc2Cl)c1=O |  | inactive: -1.38%
CC(C)[C@H](NC(=O)OCc1ccccc1)C(=O)NCc1ccccc1 |  | inactive: -3.2%
Cc1nnc(Sc2cc(C(=O)NCc3ccco3)c3ccccc3n2)s1 | inconclusive: 28.2 µM [inhibitor, single point] | 
COc1ccc(-c2csc3nc(-c4cccnc4)nc(N4CCC(C(N)=O)CC4)c23)cc1OC | active: 25.1 µM | 
Cc1nc2ccc(S(=O)(=O)CCC(=O)Nc3ccc(C)c(C)c3)cc2s1 |  | inactive: 1.69%
CCC(C)n1c(=N)c(C#N)cc2c(=O)n3ccccc3nc21 (stereo not given) | inconclusive: 28.2 µM [inhibitor, single point] | 
CC1C/C(=C/c2ccco2)C(=O)/C(=C/c2ccco2)C1 (stereo not given) | inconclusive: 20 µM [inhibitor, single point] | 

Compound | Potency | max response, negative = inhibition
CCOC(=O)c1sc(-n2[nH]c(C)cc2=O)nc1C | inconclusive: 31.6 µM [inhibitor, single point] | 
Nc1nc(Nc2ccc(Cl)cc2)nc2ccccc12 | active: 28.2 µM | 
COc1ccc(CNC(=O)COC(=O)c2cc(-c3ccc(Cl)s3)nc3ccccc23)cc1 |  | inactive: 3.89%
Cc1nc(N)sc1-c1csc(Nc2ccccc2)n1 | active: 25.1 µM | 
COc1ccc2cc3cc(C(=O)NCCN4CCc5ccccc5C4)oc3nc2c1 | inconclusive: 22.4 µM [inhibitor, single point] | 
COc1ccc(Br)cc1/C=c1\sc2nc(-c3ccco3)nn2c1=O | inconclusive: 39.8 µM [inhibitor, single point] | 
FC(F)(F)c1ccc2c(c1)N(CCCN1CCN(CCCl)CC1)c1ccccc1S2 | inconclusive: 20 µM [inhibitor, single point] | 
Cc1ccccc1C(=O)NC(NC(=S)Nc1ccc(S(N)(=O)=O)cc1)C(Cl)(Cl)Cl (stereo not given) | active: 12.6 µM | 
C/C(=N\Nc1nc(-c2ccccc2)cs1)c1cccs1 | inconclusive: 28.2 µM [inhibitor, single point] | 
N#CC1=C2SCN(C3CCCCC3)CN2C(=O)CC1c1ccc(F)cc1 (stereo not given) | inconclusive: 31.6 µM [inhibitor, single point] | 
CCCNC(=O)c1c(N)n(CC2CCCO2)c2nc3ccccc3nc12 (stereo not given) | inconclusive: 31.6 µM [inhibitor, single point] | 
CCCCC(C=O)NC(=O)C(CC(C)C)NC(=O)OCc1ccccc1 (stereo not given) | active: 0.002 µM | 
COc1ccc2nc(C)cc(SCC(=O)NNC(=O)COc3cccc4ccccc34)c2c1 | inconclusive: 15.8 µM [inhibitor, single point] | 
Cc1cc(=O)oc2cc3c(cc12)OCCN3 | inconclusive: 25.1 µM [inhibitor, single point] | 
O=C(CSc1nc2c(sc3ccccc32)c(=O)n1CCCN1CCCC1)NCC1CCCO1 (stereo not given) | inconclusive: 25.1 µM [inhibitor, single point] | 
COC(=O)NC(NC(=S)Nc1ccc([N+](=O)[O-])cc1)C(Cl)(Cl)Cl (stereo not given) | inconclusive: 22.4 µM [inhibitor, single point] | 
CCCN1CCN(CCNC(=O)Nc2cc(OC)cc(OC)c2)CC1 |  | inactive: 0.384%
CCCn1c(Nc2nc3ccccc3n2C)nc2ccccc21 |  | inactive: -0.171%
Cc1cccn2c(=O)c3cc(C#N)c(=O)n(CCCN4CCOCC4)c3nc12 | inconclusive: 31.6 µM [inhibitor, single point] | 
Cc1ccc2nc3c(cc(C(N)=S)c(=N)n3CCCOC(C)C)c(=O)n2c1 | inconclusive: 31.6 µM [inhibitor, single point] | 
CN(C)CCCNc1oc(/C=C/c2ccc(F)cc2)nc1C#N | inconclusive: 25.1 µM [inhibitor, partial curve] | 
CCOC(=O)c1c(C)[nH]c(C(=O)COC(=O)CNC(=O)c2ccc(Cl)cc2Cl)c1C | inconclusive: 3.16 µM [inhibitor, full curve, poor fit] | 
O=C(c1cc2c(=O)n3ccccc3nc2s1)N1CCOCC1 | inconclusive: 39.8 µM [inhibitor, single point] | 
O=C(CSc1nc(-c2ccccc2)c(-c2ccccc2)o1)Nc1nncs1 |  | inactive: -0.366%

Compound | Potency | max response, negative = inhibition
Cc1ccc(NC(=S)NNc2ccc([N+](=O)[O-])cc2S(=O)(=O)Nc2ccccc2C(=O)O)cc1C | inconclusive: 25.1 µM [inhibitor, partial curve] | 
Cc1nc(NC(=O)c2c(-c3ccccc3)c(-c3ccccc3)nn(C)c2=O)sc1C |  | inactive: -6.12%
Cc1c(C)c2cc(Cl)c(O)c(CN3CCCC(C)C3)c2oc1=O (stereo not given) | inconclusive: 11.2 µM [inhibitor, single point] | 
O=C(NCCS(=O)(=O)N1CCN(c2ccc(F)cc2)CC1)c1cccc(C(F)(F)F)c1 |  | inactive: -7.1%
O=P1(O)Oc2c(-c3ccccc3)cc3ccccc3c2-c2c(c(-c3ccccc3)cc3ccccc23)O1 | inconclusive: 35.5 µM [inhibitor, single point] | 
O=C(Nc1nc(-c2ccccc2)cs1)c1cccc([N+](=O)[O-])c1 |  | inactive: -2.58%
Cc1ccc(-c2nnc(SCC(=O)NC3CCCC3)nc2-c2ccc(C)cc2)cc1 | inconclusive: 25.1 µM [inhibitor, single point] | 
C/C(CC(=O)Nc1ccc(Cl)cc1Cl)=N\NC(N)=S | active: 10 µM | 
COc1ccc(OC)c(NC(=S)NCCSc2ccc(C)cc2)c1 | inconclusive: 3.98 µM [inhibitor, full curve] | 
N=c1c(C(=O)NCc2ccc(F)cc2)cc2c(=O)n3ccccc3nc2n1CC1CCCO1 (stereo not given) | active: 31.6 µM | 
CC(C)c1ccc(-c2nc(C(N)=O)c3c(n2)n(-c2ccc4c(c2)OCO4)c(=O)n3C)cc1 |  | inactive: -1.9%
COc1ccc(N2CSC3=C(C#N)C(c4cc(OC)c(OC)cc4OC)CC(=O)N3C2)c(OC)c1 (stereo not given) | inconclusive: 11.2 µM [inhibitor, partial curve] | 
CC(C)Nc1nc(C#N)nc(NC(C)C)n1 | active: 11.2 µM | 
Nc1ccc(O)c2c(=O)cc(-c3ccccc3Cl)oc12 | inconclusive: 31.6 µM [inhibitor, single point] | 
COc1ccccc1S(=O)(=O)Cc1ccc(C(=O)NCc2ccc(Cl)cc2)o1 |  | inactive: -1.51%
O=C(COc1ccccc1)NCCc1nc2ccccc2[nH]1 | active: 15.8 µM | 
COc1ccc2[nH]cc(CCNc3cc(-c4ccccc4Cl)ncn3)c2c1 | inconclusive: 0.891 µM [inhibitor, single point] | 
CC(C)CCN(Cc1ccco1)C(=O)c1cc2c(s1)-c1ccccc1OC2 | inconclusive: 31.6 µM [inhibitor, single point] | 
COc1ccc(-c2nc(C#N)c(N3CCc4ccccc4C3)o2)cc1OC | inconclusive: 31.6 µM [inhibitor, single point] | 
Cc1cc(C(=O)OCC(=O)NC(C)(C)C)c2ccccc2n1 |  | inactive: 1.83%
COc1cc(/C=N/NC(=O)c2cccnc2)ccc1OCC(=O)Nc1ccc(C)cc1 | inconclusive: 20 µM [inhibitor, single point] | 
CCCCc1cc(=O)oc2c(CN3CCCC3)c(O)ccc12 | active: 25.1 µM | 
